Data reported in patent USRE49949E1, “Reducing risk of contracting clostridium-difficile associated disease” (The Board of Regents of the Nevada System of Higher …, priority 2012, dated 2024).
Where two headings read alike, the source gives them in different places.

Assays:
Format in all cases: cell-based, Clostridium difficile strain 630
C. difficile spores [1] = experiment: Activation of C. difficile spore germination by taurocholate / bile salt analogs; conditions: for activation of spore germination by taurocholate analog: in the presence of glycine, in buffer; for germination relative to taurocholate: 6 mM analog and 12 mM glycine, taurocholate/glycine = 100%
C. difficile spores [2] = experiment: Inhibition of C. difficile spore germination by amino acid and taurocholate analogs; conditions: for IC50: read-out: IC50 of inhibition of C. difficile spore germination; for inhibition of taurocholate-mediated spore germination by taurocholate analog: spores treated with taurocholate and glycine
C. difficile spores [3] = experiment: Activation of C. difficile spore germination by amino acid analogs with taurocholate; conditions: 12 mM analog with 6 mM taurocholate

| Structure (SMILES) | activation of spore germination by taurocholate analog (C. difficile spores [1]) | inhibition of taurocholate-mediated spore germination by taurocholate analog (C. difficile spores [2]) | also measured |
| --- | --- | --- | --- |
| C[C@H](CCC(=O)NCCS(=O)O)[C@H]1CC[C@H]2[C@@H]3[C@H](O)C[C@@H]4C[C@H](O)CC[C@]4(C)[C@H]3C[C@H](O)[C@]12C [Compound T16, 2-[(3α,7α,12α-trihydroxy-24-oxo-5β-cholan-24-yl)amino]ethanesulfinic acid] | unable to activate |  | IC50 (C. difficile spores [2]; Clostridioides difficile): 640 µM |
| C[C@H](CCC(=O)NCCCS(=O)(=O)O)[C@H]1CC[C@H]2[C@@H]3[C@H](O)C[C@@H]4C[C@H](O)CC[C@]4(C)[C@H]3C[C@H](O)[C@]12C [Compound T12, 3-[(3α,7α,12α-trihydroxy-24-oxo-5β-cholan-24-yl)amino]propanesulfonic acid] | does not activate germination | unable to inhibit germination |  |
| C[C@H](CCC(=O)Nc1ccc(S(=O)(=O)O)cc1)[C@H]1CC[C@H]2[C@@H]3[C@H](O)C[C@@H]4C[C@H](O)CC[C@]4(C)[C@H]3C[C@H](O)[C@]12C [Compound T13, 4[(3α,7α,12α-trihydroxy-24-oxo-5β-cholan-24-yl)amino]benzenesulfonic acid] | unable to activate | does not inhibit spore germination |  |
| CO[C@@H]1CC[C@@]2(C)[C@@H](C1)C[C@@H](OC)[C@@H]1[C@@H]2C[C@H](O)[C@]2(C)[C@@H]([C@H](C)CCC(=O)NCCS(=O)(=O)O)CC[C@@H]12 [Compound T10, 3,7-dimethoxy-12-hydroxytaurocholate] | inactive | inactive |  |
| C[C@H](CCC(=O)NCS(=O)(=O)O)[C@H]1CC[C@H]2[C@@H]3[C@H](O)C[C@@H]4C[C@H](O)CC[C@]4(C)[C@H]3C[C@H](O)[C@]12C [Compound T11, 1-[(3α,7α,12α-trihydroxy-24-oxo-5β-cholan-24-yl)amino]methanesulfonic acid] | germinate to levels comparable with spores treated with taurocholate | unable to inhibit germination |  |
| C[C@H](CCC(=O)NCCS(=O)(=O)O)[C@H]1CC[C@H]2[C@@H]3[C@H](O)C[C@@H]4C[C@H](O)CC[C@]4(C)[C@H]3CC[C@]12C [Compound T03, taurochenodeoxycholate, reference compound] |  | showed germination inhibitory properties | germination relative to taurocholate (C. difficile spores [1]): 10% |
| COC(=O)CN [Compound A05, glycine methyl ester] |  |  | germination rate compared to glycine-triggered germination (C. difficile spores [3]): less than 10% |
| C[C@H](CCC(=O)NCCCC(=O)NCCCC(=O)O)[C@H]1CC[C@H]2[C@@H]3[C@H](O)C[C@@H]4C[C@H](O)CC[C@]4(C)[C@H]3C[C@H](O)[C@]12C [Compound T21, 8-[(3α,7α,12α-trihydroxy-24-oxo-5β-cholan-24-yl)amino]-(5-amido)octanecarboxylic acid] | inactive |  | IC50 (C. difficile spores [2]; spores treated with taurocholate (6 mM) and glycine (12 mM)): ~3000 µM |
| C[C@H](CCC(=O)NCCS(=O)(=O)O)[C@H]1CC[C@H]2[C@@H]3[C@@H](O)C[C@@H]4C[C@H](O)CC[C@]4(C)[C@H]3CC[C@]12C [Compound T04, tauroursodeoxycholate, reference compound] |  | showed germination inhibitory properties | germination relative to taurocholate (C. difficile spores [1]): 3% |
| C[C@H](CCC(=O)Nc1cccc(S(=O)(=O)O)c1)[C@H]1CC[C@H]2[C@@H]3[C@H](O)C[C@@H]4C[C@H](O)CC[C@]4(C)[C@H]3C[C@H](O)[C@]12C [CamSA, 3-[(3α,7α,12α-trihydroxy-24-oxo-5β-cholan-24-yl)amino]benzenesulfonic acid] | unable to activate | strong inhibition | IC50 (C. difficile spores [2]; Clostridioides difficile): 58.3 µM; active concentration relative to taurocholate (C. difficile spores [2]; lower than taurocholate): approximately 275 fold; activity relative to natural inhibitor chenodeoxycholate (C. difficile spores [2]; more active than chenodeoxycholate): ~4 times |
| C[C@H](CCC(=O)NCCS(=O)(=O)O)C1CC[C@H]2[C@@H]3C[C@H](O)[C@@H]4C[C@H](O)CC[C@]4(C)[C@H]3CC[C@]12C (stereo partly shown) [Compound T08, taurohyodeoxycholate, reference compound] | Neither of these compounds is able to significantly activate | showed germination inhibitory properties |  |
| C[C@H](CCC(=O)OCCS(=O)(=O)O)[C@H]1CC[C@H]2[C@@H]3[C@H](O)C[C@@H]4C[C@H](O)CC[C@]4(C)[C@H]3C[C@H](O)[C@]12C [Compound T22, 2-[(3α,7α,12α-trihydroxy-5β-cholan-24-oyl)oxy]ethanesulfonic acid] | unable to trigger germination |  | IC50 (C. difficile spores [2]; Clostridioides difficile): 1320 µM |
| CC(C)[C@H](N)C(=O)O [Compound A20, L-valine] |  |  | reduction of spore germination compared to L-norvaline (C. difficile spores [3]): more than 90% |
| COC1CC[C@@]2(C)[C@@H](C1)CC(O)[C@@H]1[C@@H]2CC(O)[C@]2(C)[C@@H]([C@H](C)CCC(=O)NCCS(=O)(=O)O)CC[C@@H]12 (stereo partly shown) [Compound T09, 3-methoxy-7,12-dihydroxytaurocholate] | neither induces nor inhibits | neither induces nor inhibits |  |
| C[C@H](CCC(=O)NCCCC(=O)O)[C@H]1CC[C@H]2[C@@H]3[C@H](O)C[C@@H]4C[C@H](O)CC[C@]4(C)[C@H]3C[C@H](O)[C@]12C [Compound T20, 3-[(3α,7α, 12α-trihydroxy-24-oxo-5β-cholan-24-yl)amino]propanecarboxylic acid] | inactive |  | IC50 (C. difficile spores [2]; Clostridioides difficile): 762 µM |
